According to the supplement of paper PMC8728848:
This is one part of the list.

Assays:
Assay in all cases: glycan array binding signal (z-score within array); higher = stronger binding
Details in all cases: glycan notation: IUPAC condensed, linker removed
[1] = biological target: Neu5Ac(a2-3)Gal(b1-3)GlcNAc(b1-6)GalNAc
In short: (§1)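 Glycan array data were curated from 3228 arrays in the Consortium for Functional Glycomics database and kept only where the protein sequence was available. Glycan names were converted to IUPAC-condensed notation, and columns mapping to the same glycan were averaged. The binding signal is a within-array Z-score, averaged across arrays of the same protein sequence at different concentrations or buffers and across linkers. Negative Z-scores can be read as non-binding.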

[2] = biological target: Neu5Ac(a2-3)Gal(b1-3)GlcNAc6S
In short: as §1

[3] = biological target: Neu5Ac(a2-3)Gal(b1-3)[Fuc(a1-4)]GlcNAc
In short: as §1

[4] = biological target: Neu5Ac(a2-3)Gal(b1-3)[Fuc(a1-4)]GlcNAc(b1-3)Gal(b1-3)[Fuc(a1-4)]GlcNAc
In short: as §1

[5] = biological target: Neu5Ac(a2-3)Gal(b1-3)[Fuc(a1-4)]GlcNAc(b1-3)Gal(b1-4)[Fuc(a1-3)]GlcNAc
In short: as §1

[6] = biological target: Neu5Ac(a2-3)Gal(b1-3)[GlcNAc(b1-6)]GalNAc
In short: as §1

[7] = biological target: Neu5Ac(a2-3)Gal(b1-3)[Neu5Ac(a2-6)]GalNAc
In short: as §1

[8] = biological target: Neu5Ac(a2-3)Gal(b1-3)[Neu5Ac(a2-6)]GlcNAc(b1-3)[Fuc(a1-3)[Gal(b1-4)]GlcNAc(b1-6)]Gal(b1-4)Glc
In short: as §1

[9] = biological target: Neu5Ac(a2-3)Gal(b1-3)]Neu5Ac(a2-3)Gal(b1-4)]GlcNAc
In short: as §1

[10] = biological target: Neu5Ac(a2-3)Gal(b1-4)Glc
In short: as §1

[11] = biological target: Neu5Ac(a2-3)Gal(b1-4)GlcNAc
In short: as §1

[12] = biological target: Neu5Ac(a2-3)Gal(b1-4)GlcNAc(b1-2)Man
In short: as §1

[13] = biological target: Neu5Ac(a2-3)Gal(b1-4)GlcNAc(b1-2)Man(a1-3)[GlcNAc(b1-4)][Neu5Ac(a2-3)Gal(b1-4)GlcNAc(b1-2)Man(a1-6)]Man(b1-4)GlcNAc(b1-4)GlcNAc
In short: as §1

[14] = biological target: Neu5Ac(a2-3)Gal(b1-4)GlcNAc(b1-2)Man(a1-3)[Neu5Ac(a2-3)Gal(b1-4)GlcNAc(b1-2)Man(a1-6)]Man(b1-4)GlcNAc(b1-4)GlcNAc
In short: as §1

[15] = biological target: Neu5Ac(a2-3)Gal(b1-4)GlcNAc(b1-2)Man(a1-3)[Neu5Ac(a2-3)Gal(b1-4)GlcNAc(b1-2)Man(a1-6)]Man(b1-4)GlcNAc(b1-4)[Fuc(a1-6)]GlcNAc
In short: as §1

[16] = biological target: Neu5Ac(a2-3)Gal(b1-4)GlcNAc(b1-2)Man(a1-3)[Neu5Ac(a2-6)Gal(b1-4)GlcNAc(b1-2)Man(a1-6)]Man(b1-4)GlcNAc(b1-4)GlcNAc
In short: as §1

[17] = biological target: Neu5Ac(a2-3)Gal(b1-4)GlcNAc(b1-2)[Neu5Ac(a2-3)Gal(b1-4)GlcNAc(b1-4)]Man(a1-3)[GlcNAc(b1-4)][Neu5Ac(a2-3)Gal(b1-4)GlcNAc(b1-2)[Neu5Ac(a2-3)Gal(b1-4)GlcNAc(b1-6)]Man(a1-6)]Man(b1-4)GlcNAc(b1-4)GlcNAc
In short: as §1

[18] = biological target: Neu5Ac(a2-3)Gal(b1-4)GlcNAc(b1-2)[Neu5Ac(a2-3)Gal(b1-4)GlcNAc(b1-4)]Man(a1-3)[GlcNAc(b1-4)][Neu5Ac(a2-3)Gal(b1-4)GlcNAc(b1-4)Man(a1-6)]Man(b1-4)GlcNAc(b1-4)GlcNAc
In short: as §1

[19] = biological target: Neu5Ac(a2-3)Gal(b1-4)GlcNAc(b1-2)[Neu5Ac(a2-3)Gal(b1-4)GlcNAc(b1-6)]Man(a1-6)[Neu5Ac(a2-3)Gal(b1-4)GlcNAc(b1-2)Man(a1-3)][GlcNAc(b1-4)]Man(b1-4)GlcNAc(b1-4)GlcNAc
In short: as §1

[20] = biological target: Neu5Ac(a2-3)Gal(b1-4)GlcNAc(b1-3)Gal
In short: as §1

[21] = biological target: Neu5Ac(a2-3)Gal(b1-4)GlcNAc(b1-3)Gal(b1-3)GlcNAc
In short: as §1

[22] = biological target: Neu5Ac(a2-3)Gal(b1-4)GlcNAc(b1-3)Gal(b1-4)GlcNAc
In short: as §1

[23] = biological target: Neu5Ac(a2-3)Gal(b1-4)GlcNAc(b1-3)Gal(b1-4)GlcNAc(b1-2)Man(a1-3)[Neu5Ac(a2-3)Gal(b1-4)GlcNAc(b1-3)Gal(b1-4)GlcNAc(b1-2)Man(a1-6)]Man(b1-4)GlcNAc(b1-4)GlcNAc
In short: as §1

[24] = biological target: Neu5Ac(a2-3)Gal(b1-4)GlcNAc(b1-3)Gal(b1-4)GlcNAc(b1-3)Gal(b1-4)GlcNAc
In short: as §1

[25] = biological target: Neu5Ac(a2-3)Gal(b1-4)GlcNAc(b1-3)Gal(b1-4)GlcNAc(b1-3)Gal(b1-4)GlcNAc(b1-2)Man(a1-3)[Neu5Ac(a2-3)Gal(b1-4)GlcNAc(b1-3)Gal(b1-4)GlcNAc(b1-3)Gal(b1-4)GlcNAc(b1-2)Man(a1-6)]GalNAc
In short: as §1

[26] = biological target: Neu5Ac(a2-3)Gal(b1-4)GlcNAc(b1-3)Gal(b1-4)GlcNAc(b1-3)GalNAc
In short: as §1

[27] = biological target: Neu5Ac(a2-3)Gal(b1-4)GlcNAc(b1-3)Gal(b1-4)GlcNAc(b1-3)[Neu5Ac(a2-3)Gal(b1-4)GlcNAc(b1-3)Gal(b1-4)GlcNAc(b1-6)]GalNAc
In short: as §1

[28] = biological target: Neu5Ac(a2-3)Gal(b1-4)GlcNAc(b1-3)Gal(b1-4)GlcNAc(b1-6)[Gal(b1-3)]GalNAc
In short: as §1

[29] = biological target: Neu5Ac(a2-3)Gal(b1-4)GlcNAc(b1-3)Gal(b1-4)[Fuc(a1-3)]GlcNAc
In short: as §1

[30] = biological target: Neu5Ac(a2-3)Gal(b1-4)GlcNAc(b1-3)GalNAc
In short: as §1

B1: PVL (Psathyrella velutina), Q309D1_9AGAR (protein)
chain: MSVVVISQALPVPTRIPGVADLVGFGNGGVYIIRNSLLIQVVKVINNFGYDAGGWRVEKHVRLLADTTGDNQPDVVGFGENGVWISTNNGNNTFVDPPKMVLANFAYAAGGWRVEKHIRFMADLRKTGRADIVGFGDGGIYISRNNGGGQFAPAQLALNNFGYAQGWRLDRHLRFLADVTGDGLLDVVGFGENQVYIARNSGNGTFQPAQAVVNNFCIGAGGWTISAHPRVVADLTGDRKADILGFGVAGVYTSLNNGNGTFGAVNLVLKDFGVNSGWRVEKHVRCVSSLTNKKVGDIIGFGDAGVYVALNNGNGTFGPVKRVIDNFGYNQGWRVDKHPRFVVDLTGDGCADIVGFGENSVWACMNKGDGTFGPIMKLIDDMTVSKGWTLQKTVRYAANLYL
glycan array binding signal (z-score) [1]: -0.344 | glycan array binding signal (z-score) [2]: -0.359 | glycan array binding signal (z-score) [3]: -0.129 | glycan array binding signal (z-score) [4]: -0.304 | glycan array binding signal (z-score) [5]: -0.232 | glycan array binding signal (z-score) [6]: -0.038 | glycan array binding signal (z-score) [7]: 0.067 | glycan array binding signal (z-score) [8]: -0.302 | glycan array binding signal (z-score) [9]: 0.362 | glycan array binding signal (z-score) [10]: -0.295 | glycan array binding signal (z-score) [11]: -0.206 | glycan array binding signal (z-score) [12]: -0.35 | glycan array binding signal (z-score) [13]: -0.318 | glycan array binding signal (z-score) [14]: -0.124 | glycan array binding signal (z-score) [15]: 0.357 | glycan array binding signal (z-score) [16]: -0.328 | glycan array binding signal (z-score) [17]: -0.201 | glycan array binding signal (z-score) [18]: -0.284 | glycan array binding signal (z-score) [19]: -0.3 | glycan array binding signal (z-score) [20]: -0.075 | glycan array binding signal (z-score) [21]: -0.107 | glycan array binding signal (z-score) [22]: -0.113 | glycan array binding signal (z-score) [23]: 0.564 | glycan array binding signal (z-score) [24]: 0.557 | glycan array binding signal (z-score) [25]: -0.299 | glycan array binding signal (z-score) [26]: 0.268 | glycan array binding signal (z-score) [27]: 0.034 | glycan array binding signal (z-score) [28]: -0.243 | glycan array binding signal (z-score) [29]: -0.285 | glycan array binding signal (z-score) [30]: -0.316
